Data taken from PubChem BioAssay AID686979 (National Center for Advancing Translational Sciences (NCATS), 2013).
In all, about 420,000 compounds went through this assay and about 50,000 (12%) were called active. The inconclusive results got no clear call from the source; some entries with a clear call stand among them for comparison. Calls follow the shape of the dose curve; as a rule, active = well fitted inhibition curve with a large enough effect; inconclusive = small, poorly fitted or top-dose-only effect; inactive = flat fitted curve, though single readings scatter. No potency is given beside an inconclusive call; the fits are too rough.

Experiment: qHTS for Inhibitors of human tyrosyl-DNA phosphodiesterase 1 (TDP1): qHTS in cells in presence of CPT; also: nearly all actives have a fitted effect of over 55% in size
Conditions: chicken DT40 Tdp1-/-;hTDP1 cells + 20 nM CPT, ATP luminescence, 48 h; activity change, negative = growth inhibition: at 46.2 µM (top of the series) unless noted
How it was run: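 Chicken DT40 Tdp1-/- cells stably complemented with human TDP1 were seeded at 400 cells/well in medium containing 20 nM camptothecin, exposed to pin-transferred compounds, and grown at 37 °C for at least 48 hr. Viability was read as ATP luminescence.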
% is scaled to controls: 0 for no effect and ±100 for the full control effect; potency is read from the fitted curve at half-maximal effect; tags tell the direction and shape of the fitted curve.

Row | SMILES | activity change, negative = growth inhibition | Potency
1 | CC(=O)C1CCC2(O)C3CCC4=CC(=O)CCC4(C)C3CCC12C (stereo not drawn) | inactive: -20.7% | –
2 | N=C1c2ccccc2CN1c1ncccn1 | inactive: 0.117% | –
3 | Cc1ccc(/C=N/n2c(-c3ccccc3)csc2=S)cc1 | – | active: 15 µM
4 | CN1C2CCC1CC(OC(c1ccccc1)c1ccc(Cl)cc1)C2 (stereo not drawn) | – | active: 2.99 µM
5 | CCOc1cc2[nH]c(=O)n(CCCCC(=O)N3CCN(c4ccccc4)CC3)c(=O)c2cc1OCC | – | inconclusive [inhibitor, full curve]
6 | CC1CC[C@@]2(OC1)O[C@@H]1[C@@H](O)[C@H]3C4CC[C@H]5C[C@@H](O[C@@H]6O[C@H](CO)[C@H](O[C@@H]7O[C@H](CO)[C@@H](O)[C@H](O[C@@H]8OC[C@@H](O)[C@H](O)[C@H]8O)[C@H]7O[C@@H]7O[C@H](CO)[C@@H](O)[C@H](O[C@@H]8O[C@H](CO)[C@@H](O)[C@H](O)[C@H]8O)[C@H]7O)[C@H](O)[C@H]6O)[C@H](O)C[C@]5(C)C4CC[C@]3(C)[C@H]1[C@@H]2C (stereo partly drawn) | – | active: 5.31 µM
7 | COc1ccc(-c2ccc3c(c2)CNCc2cnnn2-3)cc1 | inactive: -19.9% | –
8 | CCCOC(=O)Nc1ccc([As](=O)(O)O)cc1NC(=O)OCCC | inactive: 25.2% | –
9 | O=C(Nc1nccs1)c1c(O)c2c(n(Cc3ccco3)c1=O)CCCC2 | – | inconclusive [inhibitor, single point]
10 | COC(=O)C1=C(c2ccc(-c3ccccc3)c(F)c2)C[C@@H]2CC[C@H]1N2C(=O)NCc1ccco1 | – | active: 7.31 µM
11 | O=C(Nc1ccccc1)N1CC[C@@]2(CCCNC2)C1 | inactive: -14% | –
12 | Clc1ccc2[nH]c3c(c2c1)CCNC3 | – | inconclusive [inhibitor, single point]
13 | O=C1c2cc([N+](=O)[O-])ccc2-c2ncccc21 | – | inconclusive [inhibitor, single point]
14 | COc1ccc(CCn2c(O)c(C=Nc3ccc(NC(C)=O)cc3)c(=O)[nH]c2=O)cc1OC | – | inconclusive [inhibitor, single point]
15 | C[C@H](CO)N1C[C@H](C)[C@@H](CN(C)C(=O)Nc2ccccc2)Oc2c(NC(=O)Nc3ccccc3)cccc2C1=O | – | inconclusive [inhibitor, partial curve]
16 | CC(O)(CS(=O)(=O)c1ccc(F)cc1)C(=O)Nc1ccc(C#N)c(C(F)(F)F)c1 (stereo not drawn) | – | active: 15 µM
17 | COc1ccc(CN2CC=C(c3ccc(F)cc3)CC2)cc1Br | – | inconclusive [inhibitor, single point]
18 | CCc1ccc(C2C(C(=O)Nc3ccccc3OC)=C(C)Nc3nc(SCc4ccccc4)nn32)cc1 (stereo not drawn) | – | active: 4.11 µM
19 | COC(=O)C1=C(c2ccc(F)cc2OCc2ccccc2)C[C@@H]2CC[C@H]1N2C(=O)NCCCc1ccccc1 | – | active: 25.9 µM
20 | COc1ccc2nc3c(C)n(C)ccc-3c2c1 | – | inconclusive [inhibitor, single point]
21 | c1ccc2c3c([nH]c2c1)C1(CCNCC1)NCC3 | – | inconclusive [inhibitor, single point]
22 | N[C@@H](CCP(=O)(O)O)C(=O)O | inactive: 1.6% | –
23 | CCOc1ccc2[nH]c(=O)c(CN(CCO)C3(c4nnnn4C4CCCCC4)CCCCC3)cc2c1 | – | inconclusive [inhibitor, single point]

Row | SMILES | activity change, negative = growth inhibition | Potency
24 | COc1ccccc1-n1c(-c2ccccc2Br)nc2ccccc2c1=O | – | active: 23.1 µM
25 | COC(=O)C1=C(c2ccc(F)cc2F)C[C@@H]2CC[C@H]1N2C(=O)NC1Cc2ccccc2C1 | – | inconclusive [inhibitor, partial curve]
26 | CC12CCC(=O)C=C1CC(O)C1C2CCC2(C)C1CCC2(C)O (stereo not drawn) | inactive: -9.75% | –
27 | CO[C@@H]1[C@@H](O[C@@H]2O[C@H](C)[C@@H](O[C@H]3C[C@@](C)(O)[C@@H](O)[C@H](C)O3)[C@H](N(C)C)[C@H]2O)[C@@H](CC=O)C[C@@H](C)[C@@H](O[C@@H]2CC[C@H](N(C)C)[C@@H](C)O2)/C=C/C=C/C[C@@H](C)OC(=O)C[C@H]1OC(C)=O | – | inconclusive [inhibitor, full curve]
28 | COc1ccc(NC(=O)c2cccn(Cc3ccc(Cl)cc3)c2=O)c(OC)c1 | – | inconclusive [inhibitor, single point]
29 | C/C(=N\Nc1ccccc1)c1c(O)[nH]c(=O)[nH]c1=O | inactive: 3.89% | –
30 | Cc1cc(C)c(C(=O)CN2CCOCC2)c(C)c1 | inactive: -18.9% | –
31 | CCc1nn(CC(=O)N2CCN(Cc3ccc4c(c3)OCO4)CC2)c(=O)c2cc3occc3n12 | – | inconclusive [inhibitor, single point]
32 | Cc1ccc(CN2CCSc3ccc(C(=O)N4CCC5(CC4)OCCO5)cc32)cc1 | – | inconclusive [inhibitor, single point]
33 | COc1ccc(C2C=C(C)Oc3c2c(=O)oc2ccccc32)cc1OC (stereo not drawn) | – | inconclusive [inhibitor, single point]
34 | S=C(NCCc1ccccc1)N1Cc2cc(Br)ccc2-n2nncc2C1 | – | inconclusive [inhibitor, single point]
35 | O=C1Nc2ccccc2/C1=C/c1cnc[nH]1 | – | inconclusive [inhibitor, single point]
36 | CCCC(=O)NC1=C(N2CC2)C(=O)C(NC(=O)CCC)=C(N2CC2)C1=O | – | active: 0.82 µM
37 | Cc1ccc(-[n+]2c(Cc3nn(-c4ccccc4)c(C)[n+]3-c3ccc(C)cc3)nn(-c3ccccc3)c2C)cc1 | inactive: -10% | –
38 | CNC(=O)Oc1cccc2ccccc12 | – | inconclusive [inhibitor, partial curve, poor fit]
39 | Cc1cccnc1-n1c(CN2C(=O)c3ccccc3C2=O)nc2ccccc2c1=O | inactive: -7.57% | –
40 | N#Cc1cc2c(nc1SCC(=O)Nc1ccc(Cl)c(C(F)(F)F)c1)C1CCN2CC1 | – | active: 20.6 µM
41 | COc1ccc(-c2nnc3n2N(C(C)=O)C(c2ccc(Cl)c(Cl)c2)=C(C(C)=O)S3)cc1 | – | active: 3.26 µM
42 | COc1ccccc1CC1/C(=N/O)C2CCN1CC2 (stereo not drawn) | inactive: -6.8% | –
43 | COc1cccc(C2=CC(c3cc(Br)ccc3F)n3nnnc3N2)c1 (stereo not drawn) | – | active: 1.3 µM
44 | CCOC(=O)C1(c2ccccc2)Oc2ccccc2C(c2ccc(OC)cc2)=C1C(=O)OC (stereo not drawn) | – | inconclusive [inhibitor, single point]
45 | Cc1ncsc1CCCl | – | inactive
46 | O=c1c2ccccc2nc(Cc2ccccc2)n1-c1ccc(O)cc1 | – | inconclusive [inhibitor, single point]

Row | SMILES | activity change, negative = growth inhibition | Potency
47 | CC(=O)c1cccc(OCC(O)CN2CC=C(c3ccccc3)CC2)c1 (stereo not drawn) | – | inconclusive [inhibitor, single point]
48 | Cc1ccccc1-n1c(O)c(C=Nc2ccc(N(C)C)cc2)c(=O)[nH]c1=O | – | active: 23.1 µM
49 | O=C(Nc1ccccc1C(F)(F)F)c1cccn(Cc2ccccc2)c1=O | – | inconclusive [inhibitor, single point]
50 | Cc1ccc([C@H]2C[C@@H](O)[C@H](n3cc(COC(=O)c4ccccc4)nn3)CN2CC2CCCCC2)cc1 | – | inconclusive [inhibitor, single point]
51 | COC(=O)C1=C(c2ccc3ccccc3c2)C[C@@H]2CC[C@H]1N2C(=O)NCc1ccc(F)cc1 | – | inconclusive [inhibitor, single point]
52 | O=P(NS(=O)(=O)c1ccc(Cl)cc1)(Oc1ccccc1)Oc1ccccc1 | inactive: 12.6% | –
53 | C=CC1CN2CCC1CC2[C@@H](OC(=O)c1ccc(OC)cc1)c1ccnc2ccccc12 (stereo partly drawn) | – | inconclusive [inhibitor, single point]
54 | CC1(C)N2CC3([N+](=O)[O-])CN1CC([N+](=O)[O-])(C2)C3 | inactive: 16% | –
55 | C[C@H]1CCC[C@@H](O)CCC/C=C/c2cc(O)cc(O)c2C(=O)O1 | – | inconclusive [inhibitor, single point]
56 | CCN(CC)P(=O)(Oc1cccc(C)c1)N(CC)CC | – | inconclusive [inhibitor, single point]
57 | COc1ccc(NC(=O)CN2C3CCC2CC(O)(c2cccnc2)C3)cc1OC (stereo not drawn) | inactive: -10.9% | –
58 | CCN(C[C@H]1N[C@@](CC)(C(=O)OC)[C@H]2C(=O)N(Cc3ccccc3)C(=O)[C@@H]12)C(=O)Nc1ccc(Cl)cc1 | – | inconclusive [inhibitor, single point]
59 | COc1ccc(OC(=O)N(C)C[C@H]2OCc3cnnn3CCCC(=O)N([C@H](C)CO)C[C@H]2C)cc1 | inactive: 0.772% | –
60 | Cc1ccc(/C=C2/C(=O)NC(=O)N(C)C2=O)cc1 | inactive: -0.516% | –
61 | Cc1ccccc1-n1c(/C=C/c2ccccc2F)nc2ccccc2c1=O | – | active: 20.6 µM
62 | C#CCN1CC(=O)N(COC(=O)C2C(C=C(C)C)C2(C)C)C1=O (stereo not drawn) | – | inconclusive [inhibitor, single point]
63 | NC1CCCCC1N=Cc1c(O)n(Cc2ccc(F)cc2)c(=O)[nH]c1=O (stereo not drawn) | inactive: -19.9% | –
64 | CCN(CC)CCCN(c1ccccc1)C1Cc2ccccc2C1 | – | inconclusive [inhibitor, full curve, poor fit]
65 | O=C(Nc1ccccc1)c1cccn(Cc2ccccc2)c1=O | inconclusive: -30.4% [inhibitor] | –
66 | COc1ccc(C(=O)NC(=S)NNC(=O)c2cccnc2)cc1 | – | inconclusive [inhibitor, single point]
67 | NC(=O)c1c(NC(=O)c2ccc(S(=O)(=O)N(CCCl)CCCl)cc2)sc2c1CCCCC2 | – | active: 10.3 µM
68 | C[C@@H]1CCC2[C@@H](C)C(=O)O[C@@H]3OC4(C)CCC1[C@@]23OO4 (stereo partly drawn) | – | active: 4.11 µM
